{
  "source": "the supplement of paper PMC9446081",
  "note": "Screen size: about 39,000 compounds; about 220 (0.56%) showed activity. This is one part of the list.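 Note: static incubation at 37 °C against the wild-type strain, values averaged over two biological replicates.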",
  "data": [
    {"test_system": "Escherichia coli K-12 BW25113", "experiment": "relative growth (OD600 normalised to plate interquartile mean) (fraction); higher = less growth inhibition, active = 0.2 or less", "conditions": "50 µM; LB; incubation time: overnight (16-24 h)", "values": [
      {"smiles": "CCCNC(=O)C[C@@H]1CC[C@@H]2[C@@H](COc3ccc(NC(=O)c4ccc5c(c4)OCO5)cc3C(=O)N2C)O1", "relative growth": "inactive: 0.983"},
      {"smiles": "OC[C@@H]1CN(CCN2CCOCC2)C[C@H](n2cnc3c(NC4CC4)ncnc32)O1", "relative growth": "inactive: 1.02"},
      {"smiles": "CNC(=O)[C@@H](c1ccccc1)N1CCc2cc(OC)c(OC)cc2[C@@H]1CCc1ccc(C(F)(F)F)cc1", "relative growth": "inactive: 1.02"},
      {"smiles": "C[C@@H]1CN([C@@H](C)CO)C(=O)c2cc(NC(=O)Cc3ccccc3)ccc2O[C@H]1CN(C)C(=O)Nc1cccc2ccccc12", "relative growth": "inactive: 1"},
      {"smiles": "COc1ccc(S(=O)(=O)N(C)C[C@H]2Oc3ccc(NC(=O)Cc4ccccc4)cc3CC(=O)N([C@@H](C)CO)C[C@H]2C)cc1", "relative growth": "inactive: 1"},
      {"smiles": "C[C@@H]1CN([C@@H](C)CO)C(=O)Cc2cc(NC(=O)c3ccncc3)ccc2O[C@@H]1CN(C)Cc1ccc2c(c1)OCO2", "relative growth": "inactive: 0.985"},
      {"smiles": "CC(C)NC(=O)N(C)C[C@H]1Oc2ccc(NS(=O)(=O)c3cn(C)cn3)cc2C(=O)N([C@@H](C)CO)C[C@H]1C", "relative growth": "inactive: 1.02"},
      {"smiles": "C=CC[C@H](CC(=O)N(CCO)Cc1ccccc1)C(=O)NCCOC(=O)[C@@H](CC=C)CC(=O)OC(C)(C)C", "relative growth": "inactive: 1.02"},
      {"smiles": "CCC1(c2ccccc2)NC(=O)N(C)C1=O", "note": "(stereo not drawn)", "relative growth": "inactive: 0.931"},
      {"smiles": "ON/C=N\\c1nonc1-c1cccnc1", "relative growth": "inactive: 1.02"},
      {"smiles": "C[C@@H]1CCCCO[C@H](CN(C)Cc2ccc(C(=O)Nc3ccccc3N)cc2)[C@@H](C)CN([C@H](C)CO)C(=O)c2cc(NS(=O)(=O)c3cccs3)ccc2O1", "relative growth": "inactive: 0.962"},
      {"smiles": "CN1C(=O)[C@H]2CN(C)c3ccccc3[C@H]2C1=O", "relative growth": "inactive: 0.995"},
      {"smiles": "C[C@@H]1CCCCO[C@@H](CN(C)S(=O)(=O)c2cccs2)[C@H](C)CN([C@@H](C)CO)C(=O)c2cc(NC(=O)Nc3ccc(C(F)(F)F)cc3)ccc2O1", "relative growth": "inactive: 1.02"},
      {"smiles": "C[C@@H]1CCCCO[C@@H](CN(C)CC2CC2)[C@H](C)CN([C@H](C)CO)C(=O)c2cc(NC(=O)Nc3ccccc3)ccc2O1", "relative growth": "inactive: 1.01"},
      {"smiles": "COc1ccc(S(=O)(=O)N(C)C[C@H]2Oc3ccc(NC(=O)c4ccncc4)cc3C(=O)N([C@H](C)CO)C[C@H]2C)cc1", "relative growth": "inactive: 1.03"},
      {"smiles": "CCn1c(=S)ccc2ccccc21", "relative growth": "inactive: 0.884"},
      {"smiles": "CNC1C(O)C(NC)C2OC3(O)C(=O)CC(C)OC3OC2C1O.Cl.Cl", "note": "(stereo not drawn)", "relative growth": "active: 0.048"},
      {"smiles": "C[C@@H]1CN([C@H](C)CO)C(=O)c2cc(NC(=O)c3ccccc3)ccc2O[C@@H](C)CCCCO[C@H]1CN(C)Cc1ccncc1", "relative growth": "inactive: 1.01"},
      {"smiles": "C[C@H](CO)N1C[C@H](C)[C@@H](CN(C)S(=O)(=O)c2cn(C)cn2)Oc2ccc(NC(=O)Nc3ccc4c(c3)OCO4)cc2C1=O", "relative growth": "inactive: 1.01"},
      {"smiles": "C[C@H]1CN([C@@H](C)CO)C(=O)CCCn2cc(nn2)CO[C@@H]1CN(C)C(=O)Nc1ccc(N2CCCCC2)cc1", "relative growth": "inactive: 1.02"},
      {"smiles": "Cc1nc(CN)c(C)o1", "relative growth": "inactive: 0.995"},
      {"smiles": "Cc1ccc(S(=O)(=O)N[C@H]2CC[C@H](CC(=O)NCc3ccc(Cl)c(Cl)c3)O[C@H]2CO)cc1", "relative growth": "inactive: 0.989"},
      {"smiles": "Cc1noc(C)c1NC(=O)N(C)C[C@@H]1Oc2ccc(NC(=O)CCN3CCOCC3)cc2C(=O)N([C@H](C)CO)C[C@@H]1C", "relative growth": "inactive: 0.983"},
      {"smiles": "COc1ccccc1CNC(=O)C[C@H]1CC[C@@H]2[C@H](COC[C@@H](O)CN2C(=O)Nc2ccc(F)cc2)O1", "relative growth": "inactive: 1"},
      {"smiles": "c1ccc(/N=C2\\S/C(=N\\C3CCCCC3)C3=C2CCCC3)cc1", "relative growth": "inactive: 1.04"},
      {"smiles": "C[C@@H]1CCCCO[C@H](CN(C)Cc2ccc(C(F)(F)F)cc2)[C@@H](C)CN([C@H](C)CO)C(=O)c2cc(NC(=O)Nc3ccc4c(c3)OCO4)ccc2O1", "relative growth": "inactive: 0.98"},
      {"smiles": "COc1cc(C(=O)NCCCCCC(=O)O)cc(OC)c1OC", "relative growth": "inactive: 1.12"},
      {"smiles": "C[C@@H]1CN([C@H](C)CO)C(=O)c2cc(NS(=O)(=O)c3ccc(Cl)cc3)ccc2O[C@@H](C)CCCCO[C@H]1CN(C)C(=O)Nc1ccc(C(F)(F)F)cc1", "relative growth": "inactive: 1.03"},
      {"smiles": "COc1ccc2c3c(n(c2c1)C)[C@@H](CO)N(C[C@]13CCN(CC1)C(=O)CN(C)C)S(=O)(=O)C", "relative growth": "inactive: 1.01"},
      {"smiles": "O=C(C[C@@H]1C[C@H]2c3cc(NS(=O)(=O)c4ccccc4)ccc3O[C@H]2[C@@H](CO)O1)NC1CCCCC1", "relative growth": "inactive: 1.04"},
      {"smiles": "CO[C@@H]1CN(C)C(=O)c2cc(NC(=O)C3CC3)ccc2OC[C@@H](C)N(C(=O)C2CCOCC2)C[C@H]1C", "relative growth": "inactive: 0.967"},
      {"smiles": "COC(=O)CNC(=O)c1ccccc1", "relative growth": "inactive: 0.981"},
      {"smiles": "CCN(CC)CCc1nc(-c2ccccc2)no1.O=C(O)CC(O)(CC(=O)O)C(=O)O", "relative growth": "inactive: 0.968"},
      {"smiles": "COc1ccc(S(=O)(=O)Nc2ccc3c(c2)C(=O)N([C@H](C)CO)C[C@H](C)[C@@H](CN(C)Cc2ccc(C(F)(F)F)cc2)OCCCC[C@@H](C)O3)cc1", "relative growth": "inactive: 1.03"},
      {"smiles": "Cc1noc(C)c1NC(=O)Nc1ccc2c(c1)C(=O)N([C@@H](C)CO)C[C@H](C)[C@H](CN(C)C(=O)Nc1ccc(F)cc1)OCCCC[C@H](C)O2", "relative growth": "inactive: 0.965"},
      {"smiles": "Cc1noc(C)c1NC(=O)N(C)C[C@@H]1Oc2ccc(NS(=O)(=O)c3c(C)noc3C)cc2C(=O)N([C@H](C)CO)C[C@@H]1C", "relative growth": "inactive: 0.994"},
      {"smiles": "C[C@@H]1CN([C@H](C)CO)C(=O)c2cc(NC(=O)c3ccncc3)ccc2O[C@@H]1CN(C)Cc1ccc(-c2ccccc2)cc1", "relative growth": "inactive: 1"},
      {"smiles": "C[C@H]1CN([C@@H](C)CO)C(=O)c2cc(NS(=O)(=O)c3ccc(F)cc3)ccc2O[C@H]1CN(C)CC1CC1", "relative growth": "inactive: 1"},
      {"smiles": "CC(NCCc1ccc(O)cc1)C(O)c1ccc(O)cc1.Cl", "note": "(stereo not drawn)", "relative growth": "inactive: 1.06"},
      {"smiles": "C[C@H]1CN([C@@H](C)CO)C(=O)c2cccc(NS(=O)(=O)c3cccs3)c2O[C@H]1CN(C)CC1CC1", "relative growth": "inactive: 1.01"},
      {"smiles": "CN1CCN(C2=Nc3ccccc3Oc3ccc(Cl)cc32)CC1.O=C(O)CCC(=O)O", "relative growth": "inactive: 1.08"},
      {"smiles": "C[C@H]1CN([C@@H](C)CO)S(=O)(=O)c2ccc(-c3cncnc3)cc2O[C@@H]1CN(C)C(=O)Cc1ccccc1", "relative growth": "inactive: 1.03"},
      {"smiles": "COc1ccc(NC(=O)N(C)C[C@H]2OCCCC[C@@H](C)Oc3ccc(NS(=O)(=O)c4cccs4)cc3C(=O)N([C@H](C)CO)C[C@H]2C)cc1", "relative growth": "inactive: 1.05"},
      {"smiles": "C[C@H]1CN([C@@H](C)CO)S(=O)(=O)c2ccc(C#CC3(O)CCCC3)cc2O[C@@H]1CN(C)C(=O)Cc1ccncc1", "relative growth": "inactive: 1.02"},
      {"smiles": "C[C@@H]1CN([C@H](C)CO)C(=O)c2ccccc2-c2ccccc2CO[C@@H]1CN(C)C(=O)Nc1ccc(F)cc1", "relative growth": "inactive: 0.995"},
      {"smiles": "C[C@@H](NC(=O)C[C@@H]1CC[C@@H](NC(=O)CN2CCOCC2)[C@@H](CO)O1)c1ccccc1", "relative growth": "inactive: 0.988"},
      {"smiles": "CC(C)N1C(=O)[C@@H]2[C@@H](C1=O)[C@@H]1C=C[C@@H]2O1", "relative growth": "inactive: 0.99"},
      {"smiles": "C[C@H]1CCCCO[C@@H](CN(C)C(=O)Nc2cccc3ccccc23)[C@@H](C)CN([C@@H](C)CO)C(=O)c2cc(NS(=O)(=O)c3ccccc3)ccc2O1", "relative growth": "inactive: 1.03"},
      {"smiles": "CC1OC1P(=O)([O-])[O-].[Ca+2]", "note": "(stereo not drawn)", "relative growth": "inactive: 1.08"},
      {"smiles": "C[C@@H]1CN([C@H](C)CO)S(=O)(=O)c2ccc(C#CC3CC3)cc2O[C@@H]1CN(C)Cc1cccc(F)c1", "relative growth": "inactive: 1.03"},
      {"smiles": "CC(C)C[C@@H]1NC(=O)[C@@]23C(=O)N[C@@H](Cc4ccccc4)[C@H]2[C@H](C)[C@@]2(C)O[C@H]2[C@@H]3/C=C/C/C=C\\CNC(=O)[C@@H](C)NC1=O", "relative growth": "inactive: 1.01"},
      {"smiles": "COC(=O)[C@@H](C)n1nc(-c2ccccc2)c2ccccc21.COC(=O)[C@H](C)n1nc(-c2ccccc2)c2ccccc21", "relative growth": "inactive: 1.01"},
      {"smiles": "COCCOC(=O)N1C(=O)[C@@]2(c3cc(C#Cc4ccc(OC)cc4)ccc31)[C@H](c1ccccc1OCCO)N1[C@H](c3ccccc3)[C@H](c3ccccc3)OC(=O)[C@H]1[C@@H]2C(=O)N1CCc2cc(OC)c(OC)cc2C1", "relative growth": "inactive: 1.08"},
      {"smiles": "C[C@@H]1CCCCO[C@H](CN(C)C(=O)Cc2ccccc2)[C@@H](C)CN([C@@H](C)CO)C(=O)c2cc(NC(=O)c3ccccc3)ccc2O1", "relative growth": "inactive: 1.01"},
      {"smiles": "C[C@H](CO)N1C[C@H](C)[C@@H](CN(C)S(=O)(=O)c2cn(C)cn2)Oc2cc(C3=CCCC3)ccc2S1(=O)=O", "relative growth": "inactive: 1.01"},
      {"smiles": "C[C@@H]1CN([C@H](C)CO)C(=O)c2cc(NC(=O)Cc3ccccc3)ccc2O[C@@H](C)CCCCO[C@H]1CN(C)Cc1ccncc1", "relative growth": "inactive: 1"},
      {"smiles": "C=C(C)CC1(N[C@H](C)c2ccccc2)CCCCC1", "relative growth": "inactive: 1.01"},
      {"smiles": "C[C@@H]1CN([C@@H](C)CO)S(=O)(=O)c2ccc(C#CC(C)(C)O)cc2O[C@H]1CN(C)Cc1ccc(F)cc1", "relative growth": "inactive: 1.01"},
      {"smiles": "C[C@H]1CN([C@@H](C)CO)C(=O)c2cc(NS(=O)(=O)c3ccc(Cl)cc3)ccc2O[C@@H]1CN(C)Cc1ccc(Cl)c(Cl)c1", "relative growth": "inactive: 1.02"},
      {"smiles": "CC(C)CC#Cc1ccc2c(c1)O[C@@H](CN(C)S(=O)(=O)c1cccc(F)c1)[C@@H](C)CN([C@@H](C)CO)S2(=O)=O", "relative growth": "inactive: 1.02"},
      {"smiles": "CCC(=O)NCCN1CCN(C(=O)CC)CC1", "relative growth": "inactive: 1.05"},
      {"smiles": "C[C@@H]1CN([C@@H](C)CO)C(=O)c2c(c3ccccc3n2C)-c2ccccc2CO[C@H]1CN(C)C(=O)Nc1ccc(F)cc1", "relative growth": "inactive: 1.02"},
      {"smiles": "Cc1ccc(S(=O)(=O)N(C)C[C@@H]2OCCCC[C@H](C)Oc3ccc(NS(=O)(=O)c4ccc(F)cc4)cc3C(=O)N([C@H](C)CO)C[C@@H]2C)cc1", "relative growth": "inactive: 1"}
    ]}
  ]
}
